# Out of some 310,000 compounds screened, about 2,200 (0.71%) showed an effect of 50% or more. The effect is printed as a negative number. This is one part of the list.
# Molecular target: human ether-à-go-go-related gene (hERG) potassium channel (human, UniProt Q12809)
# Assay: primary screen, population patch clamp on CHO cells stably expressing hERG
# human ether-à-go-go-related gene (hERG) potassium channel, sequence (Q12809 whole entry, looked up): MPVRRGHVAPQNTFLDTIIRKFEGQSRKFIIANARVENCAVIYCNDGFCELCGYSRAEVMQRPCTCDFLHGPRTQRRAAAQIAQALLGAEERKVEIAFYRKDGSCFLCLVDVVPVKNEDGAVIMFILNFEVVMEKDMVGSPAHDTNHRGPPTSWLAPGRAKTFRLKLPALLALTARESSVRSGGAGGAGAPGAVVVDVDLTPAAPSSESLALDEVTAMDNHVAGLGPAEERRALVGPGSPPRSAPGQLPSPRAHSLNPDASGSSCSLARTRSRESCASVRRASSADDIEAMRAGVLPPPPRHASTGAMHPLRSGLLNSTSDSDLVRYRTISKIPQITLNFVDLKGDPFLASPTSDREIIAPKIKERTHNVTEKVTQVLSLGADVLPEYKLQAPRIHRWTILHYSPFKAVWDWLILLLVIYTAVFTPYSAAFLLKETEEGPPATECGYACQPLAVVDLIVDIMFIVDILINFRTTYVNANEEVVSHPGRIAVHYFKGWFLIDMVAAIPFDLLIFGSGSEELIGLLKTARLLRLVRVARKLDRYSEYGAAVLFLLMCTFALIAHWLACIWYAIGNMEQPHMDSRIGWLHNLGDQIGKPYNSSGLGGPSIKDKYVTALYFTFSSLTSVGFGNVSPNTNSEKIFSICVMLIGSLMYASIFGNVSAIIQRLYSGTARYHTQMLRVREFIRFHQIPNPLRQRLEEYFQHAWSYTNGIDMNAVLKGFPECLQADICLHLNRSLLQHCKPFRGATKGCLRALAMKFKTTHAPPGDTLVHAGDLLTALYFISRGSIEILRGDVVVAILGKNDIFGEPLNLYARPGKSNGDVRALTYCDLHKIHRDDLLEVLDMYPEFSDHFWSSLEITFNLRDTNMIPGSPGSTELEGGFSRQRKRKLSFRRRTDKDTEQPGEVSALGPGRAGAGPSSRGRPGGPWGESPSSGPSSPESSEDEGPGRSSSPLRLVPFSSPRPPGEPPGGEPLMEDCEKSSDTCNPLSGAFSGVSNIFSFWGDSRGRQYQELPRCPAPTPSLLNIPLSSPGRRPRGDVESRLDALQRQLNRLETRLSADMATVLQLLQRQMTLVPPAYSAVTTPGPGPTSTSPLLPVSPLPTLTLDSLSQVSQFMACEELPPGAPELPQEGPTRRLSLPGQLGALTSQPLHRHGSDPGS
row,Compound,"hERG current change (%, negative = inhibition) at 1uM"
1,CCOC(=O)/C(C#N)=C1/C=CN(C)C(C)=N1,11.9%
2,CCCOc1ccc(N)cc1N.Cl,8.72%
3,C/C(=N\NC(=O)C(O)(c1ccccc1)c1ccccc1)c1ccc(C)o1,13.2%
4,COc1ccc2c(OC)cc(-c3ccccc3)nc2c1,4.57%
5,COc1nc(Nc2cccc(C(F)(F)F)c2)nc(OC)n1,8.79%
6,CC(=O)Nc1ccc(/C=N/N2C(C)CCCC2C)cc1 (stereo not drawn),14.2%
7,COc1ccc([N+](=O)[O-])cc1N(CC(=O)N1CCCC1)S(C)(=O)=O,10.2%
8,Cc1nc2ccc([N+](=O)[O-])cc2c(=O)n1Cc1ccc(F)cc1,-9.51%
9,CSc1ccc(C(=O)C2CCCN(C(=O)c3cc4cc(F)ccc4[nH]3)C2)cc1 (stereo not drawn),13%
10,O=C(O)CCC(=O)N1CCc2cc(S(=O)(=O)N3CC=C(c4ccccc4)CC3)ccc21,13.4%
11,CCc1ccc(NC(=O)CN2C(=O)CSC2=O)cc1,8.41%
12,COc1ccc(N2C(=O)CC(SCc3ccc(Cl)cc3)C2=O)cc1 (stereo not drawn),8.87%
13,CCOC(=O)C1CCCN(C2CC(=O)N(c3ccc(C)cc3)C2=O)C1 (stereo not drawn),10.7%
14,Cc1c(C)n(C(=O)CN2CCN(c3ccccc3)CC2)c2ccccc12,1.3%
15,COc1ccc(C(C)C)cc1S(=O)(=O)NCc1ccccn1,11.4%
16,CCOC(=O)c1sc(Nc2ccc(C)cc2C)nc1C,14.3%
17,Cc1ccc(NC(=O)c2ccco2)cc1NC(=O)CSc1nnc(-c2cccs2)n1C,-21.9%
18,Nn1c(SCc2cccc(Cl)c2)nnc1-c1ccncc1,6.74%
19,Cc1cccc(NC(=O)COC(=O)Cc2c[nH]c3ccccc23)c1C,16.7%
20,COc1ccc(NC(=O)C(c2cc3c(cc2[N+](=O)[O-])OCO3)N(C)Cc2ccccc2)cc1 (stereo not drawn),10.8%
21,COc1cc2[nH]c(=S)n(CCN3CCCCC3C)c(=O)c2cc1OC (stereo not drawn),1.74%
22,Cn1c(O)c(C(c2ccncc2)c2c(O)n(C)c(=S)n(C)c2=O)c(=O)n(C)c1=S,11.3%
23,Cc1[nH]c(=O)cc2ccccc12,11.3%

row,Compound,"hERG current change (%, negative = inhibition) at 1uM"
1,O=C(COC(=O)c1ccco1)Nc1cccc(Br)c1,11.4%
2,Cc1ccc(-c2csc(NC(=O)CSc3nc(C)cs3)n2)cc1,-0.666%
3,Cc1nc(C)n(CC(=O)N2CCCC(C(=O)c3ccc(Cl)cc3C)C2)n1 (stereo not drawn),-2.69%
4,Cc1nnc(SCC(=O)N(Cc2ccccc2)C(C)C)n1-c1ccccc1,12.3%
5,CC(C(=O)Nc1cccnc1)N1C(=O)c2ccccc2C1=O (stereo not drawn),11.7%
6,CCOC(=O)N1CCN(C(=O)CSc2ccc(-c3ccccc3OC)nn2)CC1,2.58%
7,COc1cc(C(=S)N2CCOCC2)cc(Br)c1OS(=O)(=O)c1ccccc1,19.5%
8,COc1ccccc1CN1CCN(Cc2nc(-c3ccc(C)cc3)oc2C)CC1,1.01%
9,CCCn1c(SCC(=O)NC2CCCc3ccccc32)n[nH]c1=O (stereo not drawn),18.2%
10,Fc1ccc(CN2CCN(c3ncnc4scc(-c5ccc(F)cc5)c34)CC2)cc1,13.8%
11,Cn1ccnc1Sc1ccccc1[N+](=O)[O-],12.1%
12,CC(C)C(=O)NC(=S)Nc1ccccc1N1CCN(C(=O)c2ccccc2)CC1,6.8%
13,CC(C)c1nnc(NC(=O)CCCCCN2C(=O)C3C4C=CC(C4)C3C2=O)s1 (stereo not drawn),-3.36%
14,CC(=O)Nc1ccc(S(=O)(=O)N(C)CC(=O)OCC(=O)N2CCCC2=O)cc1,6.45%
15,O=C(CN1C(=O)COc2ccc(S(=O)(=O)N3CCCCC3)cc21)NCc1ccc(Cl)cc1,16.4%
16,Cc1ccc(NC(=O)Nc2ccc3c(c2)nc(C)n3C)cc1,7.11%
17,O=C(NCc1ccccc1C(F)(F)F)C1CC(c2ccc(C(F)(F)F)cc2)=NO1 (stereo not drawn),8.37%
18,Cc1nc2c(c3c1[nH]c1ccccc13)C(=O)CC(C)(C)C2,17.6%
19,COc1ccc(CCNC(=O)CSc2ccccn2)cc1,5.88%
20,CCOC(=O)c1sc(NC(=O)c2ccncc2)nc1C,4.1%
21,COc1ccc(NC(=O)C(CC(C)C)NC(=O)C2CCC(C)CC2)cc1 (stereo not drawn),8.82%
22,COc1ccc(S(=O)(=O)Nc2ccccc2C(=O)N2CCOCC2)cc1Br,7.83%
23,CCOc1ccc(C2CC(c3cccc(C)c3)n3ncnc3N2)cc1 (stereo not drawn),-13.6%

row,Compound,"hERG current change (%, negative = inhibition) at 1uM"
1,CC(C)N(C(=O)CSc1nc(Cc2ccccc2)nc2ccccc12)C(C)C,10.5%
2,CCOC(=O)C1(Cc2ccccc2C)CCCN(C(=O)CN2CCCCC2=O)C1 (stereo not drawn),16.8%
3,CCCCN(C(=O)c1cc(-c2ccco2)nc2ccccc12)c1c(N)n(CCCC)c(=O)[nH]c1=O,7.94%
4,Cc1ccc(C)c(NC(=O)NCCN2CCCCC2)c1,4.5%
5,CCOC(=O)C(NC(C)=O)(Nc1cccc(F)c1)C(F)(F)F (stereo not drawn),9.09%
6,Cc1ccc(-c2csc(NC(=O)c3ccccc3Cl)c2C(=O)O)cc1,19.3%
7,CC(=O)NC1=NN(C(C)=O)C(C)(CS(=O)(=O)c2ccc(C)c(C)c2)S1 (stereo not drawn),14.9%
8,O=c1c2c(-c3ccccc3)csc2nc2n1CCC2,15.5%
9,COc1ccc(Oc2nc(-c3ccccc3)ncc2C(=O)O)cc1,12.7%
10,CCCN(CCC)S(=O)(=O)c1ccc(C(=O)N2CC3CCC(CC3)C2)cc1,14.2%
11,O=C(Nc1ccccc1NC(=O)c1c(F)c(F)c(F)c(F)c1F)c1c(F)c(F)c(F)c(F)c1F,5.94%
12,FC(F)(F)c1ccccc1NC1=NCCC1,5.25%
13,CCOC(=O)c1c(S(=O)(=O)N2CCCC(C(=O)Nc3ncccc3C)C2)c(C)n(C)c1C (stereo not drawn),15.4%
14,CC1=NN(C(=O)c2csc(C)c2C)C(O)(C(F)(F)F)C1 (stereo not drawn),8.3%
15,Cc1ccc(N2CC(C(=O)OCc3ccccc3)CC2=O)cc1 (stereo not drawn),-3.34%
16,NC(=S)N/N=C1\CCOc2ccc(Cl)cc21,0.314%
17,CC(OC(=O)C1CCCC1)C(=O)Nc1ccc(C(N)=O)cc1 (stereo not drawn),12.1%
18,COc1ccc(S(=O)(=O)N2CCCCCC2)cc1NC(=O)CC1OC(=O)c2ccccc21 (stereo not drawn),-9.23%
19,O=C1/C(=C/c2ccco2)CCC1C1CCCC1 (stereo not drawn),8.51%
20,CC1CCCN(CC(=O)Nc2cc(Cl)ccc2Oc2ccccc2)C1 (stereo not drawn),17.9%
21,Cc1ccc(C(=O)N/N=C/c2sc(=O)n(Cc3cccc(C(=O)O)c3)c2Cl)cc1,11.6%
22,O=C(c1ccco1)N1CCN(C(=O)C2CC2)CC1,2.89%
23,NC(=O)c1cc2c(s1)-c1cc(Cl)ccc1SC2,10.7%

row,Compound,"hERG current change (%, negative = inhibition) at 1uM"
1,CC(C)Cc1ccc(C(=O)NCc2ccc3c(c2)OCO3)o1,13.8%
2,CSc1nc(C)nc(C2CC2)c1C#N,15.9%
3,COc1ccc(N2CC(C)Cn3c2nc2c3c(=O)n(Cc3ccc(F)cc3)c(=O)n2C)c(OC)c1 (stereo not drawn),-3.37%
4,COc1cccc(-c2cc(C(=O)Nc3cccnc3)c3ccccc3n2)c1,3.04%
5,CCNC(=O)CSc1nnc(-c2cc(-c3ccc(Cl)cc3)nc3ccccc23)o1,-4.55%
6,COc1ccccc1N1CCN(C/C=C/c2ccc(N(C)C)cc2)CC1,-14.8%
7,COCCN1CC(C(=O)NCc2ncccc2C)CCC1=O (stereo not drawn),18.5%
8,CCCCC(=O)Nc1ccc(C(=O)NCCN2CCOCC2)cc1,16.7%
9,N#CCOC(=O)/C=C/c1ccc2c(c1)OCO2,12.3%
10,COc1ccc(CCn2c(N)c(C(=O)NCc3ccco3)c3nc4ccccc4nc32)cc1,6.71%
11,COc1ccc(CNC(=O)CN(Cc2ccc(C)cc2)S(=O)(=O)c2ccc(Cl)cc2)cc1,-18.7%
12,C=CCn1c(=O)c2c(nc3n2CCCN3CCc2ccccc2)n(C)c1=O,14.8%
13,O=S(=O)(c1ccc(Br)s1)N1CCN(c2ccccc2)CC1,11.5%
14,CN(C)S(=O)(=O)Oc1ccccc1C(=O)Nc1cccc(C(F)(F)F)c1,7.74%
15,COc1cc(/C(C)=N/NC(=O)CSc2nnc(C)s2)ccc1O,10.4%
16,COc1cc(/C=N/NC(=O)c2c(-c3ccccc3)noc2C)cc(OC)c1OC,1.51%
17,CCCCn1c(N)c(N2CCOCC2)c(=O)n(CC(=O)NCCc2ccccc2)c1=O,10.8%
18,Cc1ccc(-c2ccc(=O)n(CC(=O)NCC3COCCO3)n2)cc1 (stereo not drawn),14.6%
19,COc1cc(NC(=O)c2cc([N+](=O)[O-])ccc2Br)ccc1NC(=O)c1ccco1,10.9%
20,Cc1cc(=O)n2[nH]c(-c3ccc(C(C)(C)C)cc3)cc2n1,-1.14%
21,CCCCOC(=O)Cn1cnc2ccc(Br)cc2c1=O,-6.98%

# Reference: article PMC4336329 (PLoS ONE, 2015)
